# Assay results: PubChem BioAssay AID2202238 (Ras Initiative Chemistry Research Team, Frederick National …, 2025)
# Out of some 2,200 compounds screened, fewer than 10 were called active. This is one part of the list. Entries without a call are filed as inconclusive in the source.
# Biological target: GTPase KRas (Homo sapiens) (UniProt P01116)
# Assay: Fragment capture on engineered cysteines, share of protein labelled (AID 2202238)
# Design: protein at 5 µM with 500 µM competing thiol for 1.5 h
# Settings: KRAS G12D cysteine mutants, disulfide tethering, MALDI-TOF labeling; stronger effect = higher value; H27C mutant labeling; fragment at 500 µM
# UniProt P01116, sequence (P01116 whole entry, looked up, the tested form may be a part): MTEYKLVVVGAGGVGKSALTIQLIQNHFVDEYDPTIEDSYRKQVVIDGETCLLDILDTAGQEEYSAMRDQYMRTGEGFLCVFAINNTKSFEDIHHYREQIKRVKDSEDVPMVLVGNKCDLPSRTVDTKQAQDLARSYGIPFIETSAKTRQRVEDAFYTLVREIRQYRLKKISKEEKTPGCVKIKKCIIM
row,Structure (SMILES),percent labeling [%]
1,Cc1cccc(C(=O)NC2CC(NC(=O)CCS)C2)n1 (configuration not stated),36.9
2,O=C(CCS)Nc1cn[nH]c1-c1ccccn1,42.8
3,O=C(CCS)NCCn1ccc(-c2ccccc2)n1,38.7
4,Cc1nn(C)c(N2CCN(C(=O)CCS)CC2)c1C#N,55.4
5,CC(C)c1ccc(NC(=O)CCS)cc1C(F)(F)F,20.2
6,Cc1nc(-c2ccncc2)[nH]c(=O)c1CCC(=O)NCCS,29.4
7,Cn1ccc(C(=O)NCCS)c1-c1ccccc1,37.6
8,COc1ccc2c(n1)N(C)CCN2C(=O)CCS,22.4
9,O=C(CCS)N1CC(Oc2cccc(F)c2)C1,32.8
10,O=C(NCCS)C1(Oc2ccc(Cl)cc2)CC1,26.3
11,Cc1cc(C)n(-c2ccc(NC(=O)CCS)cc2Cl)n1,40.4
12,CC1(C(=O)NCCS)CC(c2ccccc2)=NO1 (configuration not stated),27.3
13,CC(C)c1onc(-c2ccccc2)c1C(=O)NCCS,28.3
14,Cc1c(C(=O)NCCS)oc(=O)c2ccccc12,31.8
15,O=C(CCS)Nc1ccc(OC(F)F)nc1,25
16,COc1ncc(C(=O)NCCS)c(C(F)F)n1,39.4
17,O=C(CNC(=O)c1cccc2[nH]ccc12)NCCS,33.2
18,O=C(CCS)NCCn1ccn2nccc2c1=O,26.8
19,O=C(NCCS)c1cccc2nc(C(F)F)sc12,40.4
20,Cn1cc(C(=O)NCCS)c(-c2coc3ccccc23)n1,32.1
21,O=C(CCS)Nc1ccc2nc[nH]c(=O)c2c1,51.1
22,O=C(NCCS)C1(c2cccc(Br)c2)CCOCC1,28.8
23,CC(C(=O)NCCS)N1CCC(Cc2ccccc2)CC1 (configuration not stated),33.8
24,O=C(CCS)Nc1cccc(Cn2nc3ccccn3c2=O)c1,31.6

row,Structure (SMILES),percent labeling [%]
1,O=C(CCS)N1CCN(C(=O)Cc2cccc(F)c2)CC1,42.9
2,Cc1cc(CN(C(=O)CCS)C2CC2)cc(S(N)(=O)=O)c1C,41.4
3,CC(C)c1noc(C2(NC(=O)CCS)CCOCC2)n1,35.2
4,CC(C)c1nn(C)c2sc(C(=O)NCCS)cc12,38.7
5,O=C(NCCS)c1csc(-c2cc(Br)cs2)n1,27.5
6,CCc1ncncc1C(=O)NCCS,38
7,O=C(NCCS)C1COCCN1CC(F)(F)F (configuration not stated),30.5
8,O=C(CCS)NCc1ccn(CC(F)F)n1,34.5
9,O=C(NCCS)c1ccn(CCC(F)(F)F)n1,32.5
10,Cc1nn(Cn2ccc(C(=O)NCCS)n2)c(C)c1Br,43.8
11,CNC(=O)c1cc(Oc2cccc(NC(=O)CCS)c2)ccn1,38.7
12,COc1ccc([C@@H]2C[C@H]2CC(=O)NCCS)cc1,25.5
13,CC(C)(C)c1csc(CC2(O)CC3CCC(C2)N3C(=O)CCS)n1 (configuration not stated),34.2
14,CC(O)C(NC(=O)c1cc(Cl)ccc1Cl)C(=O)NCCS (configuration not stated),31.7
15,O=C(NCCS)c1cc(Oc2ccccc2)ccn1,24.4
16,Nc1nc(C2CC2)nc(N2CCN(C(=O)CCS)CC2)n1,51.4
17,N#CCCN(CC1CCN(Cc2ccccc2)CC1)C(=O)CCS,50.4
18,COc1ccc2c(c1)CCCC2C(=O)NCCS (configuration not stated),32.8
19,O=C(CCS)N1CCC(O)(Cn2ccnn2)CC1,29.5
20,O=C(CCNC(=O)c1cnccn1)NCCS,21.1
21,O=C(CCCN1C(=O)CCc2ccccc21)NCCS,45.7
22,COc1ccc(C)cc1-n1cc(C(=O)NCCS)ccc1=O,42.4
23,O=C1CC(C(=O)NCCS)(c2ccccc2)CN1 (configuration not stated),32.2
24,Cn1cc(CCC(=O)NCCS)c2ccccc21,19.7

row,Structure (SMILES),percent labeling [%]
1,O=C(CCS)NCCc1ccc2ncccc2c1,33.3
2,O=C(NCCS)C1(c2ccccc2)CC2(CCC2)C1,21.3
3,O=C(CCS)NCC1CCN(C(=O)c2ccccc2)CC1,39.6
4,CC(Cn1cccn1)(NC(=O)CCS)C(N)=O (configuration not stated),23.5
5,O=C(CCS)NCc1cccc(-c2ccccn2)c1,44.1
6,O=C(CCS)N1CCC(Oc2ccccc2Cl)CC1,53
7,Cc1c(C(=O)NCCS)ccc2c1OC(F)(F)O2,25.3
8,Cc1nc(-c2c[nH]c(C(=O)NCCS)c2)cs1,34.4
9,O=C(NCCS)[C@@H]1OCC[C@@H]1Cn1cccn1,20.7
10,CN(C(N)=O)c1cccc(NC(=O)CCS)c1,38.7
11,O=C(CCS)Nc1cnn(C2CCCC2)c1,41.6
12,CCc1nn(C)c(CC(=O)NCCS)c1Cl,46.7
13,CCCN1C(=O)c2ccccc2N2C(=O)CCC12C(=O)NCCS (configuration not stated),33.7
14,O=C(NCCS)c1cc(Br)c2c(c1)C(=O)NCCO2,47
15,Cc1ccc(-c2nc(C)c(C(=O)NCCS)s2)c(F)c1,23
16,O=C(CCCn1nnc(-c2ccccc2)n1)NCCS,28.1
17,COc1cccc(C2C(NC(=O)CCS)CCN2C2CC2)c1 (configuration not stated),37.1
18,O=C(CCS)NCC1CN(c2nncs2)CCO1 (configuration not stated),38.7
19,O=C(CCS)Nc1cccc2[nH]c(=O)ccc12,39.4
20,O=C(NCCS)c1c(-n2cccc2)sc2c1CCC2,16.8
21,O=C(CN1C(=O)C(F)(F)Oc2ccccc21)NCCS,28.2
22,O=C(NCCS)C(O)c1cccnc1 (configuration not stated),35.8
23,O=C(CCS)N1CCOc2cc(Br)c(F)cc21,33.1
24,CC(C)(c1cccc(NC(=O)CCS)c1)C(F)(F)F,25.9
